From PubChem BioAssay AID1030 (National Center for Advancing Translational Sciences (NCATS), 2008)
Hit rate of the full screen: of about 220,000 compounds, about 16,000 (7.3%) were called active. This list was built around the results that the source calls inconclusive (neither active nor inactive); the mix of calls is not that of the screen. The call rests on the fitted dose curve; in most records, active means well fitted inhibition curve with a large enough effect (not every such curve was filed as active); inconclusive means small, poorly fitted or top-dose-only effect, or another doubt; inactive means no such curve, though single readings can be large or run the other way. A potency beside an inconclusive call is a rough fit, not a confirmed value.

target: Aldehyde dehydrogenase 1A1 (Homo sapiens) (UniProt P00352); test: qHTS Assay for Inhibitors of Aldehyde Dehydrogenase 1 (ALDH1A1); details: Purified ALDH1A1, NADH fluorescence, propionaldehyde substrate; series mostly up to 75.3 µM; activity, negative = inhibition: at the top concentration;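 on activity, negative = inhibition: plate controls were no enzyme wells and a reference inhibitor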
Sequence of UniProt P00352 (P00352 whole entry, looked up): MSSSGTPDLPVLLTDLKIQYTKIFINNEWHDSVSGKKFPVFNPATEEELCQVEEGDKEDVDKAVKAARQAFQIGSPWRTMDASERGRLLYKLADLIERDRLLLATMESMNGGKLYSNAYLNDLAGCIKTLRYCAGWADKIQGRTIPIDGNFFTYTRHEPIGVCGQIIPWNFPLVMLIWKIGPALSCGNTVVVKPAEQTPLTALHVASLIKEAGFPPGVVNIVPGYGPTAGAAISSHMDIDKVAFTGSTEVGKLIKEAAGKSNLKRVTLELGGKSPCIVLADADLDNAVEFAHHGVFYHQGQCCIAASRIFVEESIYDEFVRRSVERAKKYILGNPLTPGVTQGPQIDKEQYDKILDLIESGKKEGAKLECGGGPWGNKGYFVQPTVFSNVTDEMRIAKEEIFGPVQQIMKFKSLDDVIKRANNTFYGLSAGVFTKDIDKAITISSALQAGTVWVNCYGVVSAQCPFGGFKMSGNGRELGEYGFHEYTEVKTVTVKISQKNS
Potency means the concentration at half of the fitted maximal effect; tags describe the fitted curve by direction and shape.

Potency, inconclusive:
COCCNc1ncnc2c1[nH]c1ccccc12 39.8 µM [inhibitor, single point]
CCOC(=O)C1CCCN(C(=O)c2ccc(C)cc2O)C1 (configuration not stated) 6.31 µM [inhibitor, single point]
CSCCC1NC(=O)N(CC(=O)Nc2ccc(N3CCCCC3)cc2)C1=O (configuration not stated) 39.8 µM [inhibitor, single point]
Cn1c(SCC(=O)NCC2CCCO2)nnc1-c1ccc(S(=O)(=O)N2CCCC2)cc1 (configuration not stated) 39.8 µM [inhibitor, single point]
COc1ccc(Nc2oc(-c3ccccc3Cl)nc2C#N)cc1 31.6 µM [inhibitor, single point]
CCn1c(Sc2nc(C)nc3scc(-c4cccs4)c23)n[nH]c1=O 39.8 µM [inhibitor, single point]
CCc1nnc(NC(=O)CCC(=O)N2CCN(C3CCCCC3)CC2)s1 39.8 µM [inhibitor, single point]
COc1ccc(OC2C(=O)N(Cc3ccc(F)cc3)C2c2ccc(OC)c(OC)c2)cc1 (configuration not stated) 39.8 µM [inhibitor, single point]
CCCCCn1c(SCC(=O)OCC)nc2cc(C(=O)NCc3ccco3)ccc2c1=O 28.2 µM [inhibitor, single point]
COc1ccc(-c2nn(-c3ccccc3)cc2C(=O)n2nnc3ccccc32)cc1 39.8 µM [inhibitor, single point]
O=C1C2C3C=CC(CC3)C2C(=O)N1c1ccccc1[N+](=O)[O-] (configuration not stated) 25.1 µM [inhibitor, single point]
Cc1ccc(C(=O)Oc2coc(CSc3nnc(NC(=O)c4cccs4)s3)cc2=O)cc1C 0.398 µM [inhibitor, partial curve, poor fit]
O=C1c2ccccc2C(Nc2ccc3c(c2)OCO3)N1Cc1ccc2c(c1)OCO2 (configuration not stated) 12.6 µM [inhibitor, partial curve]
CCOC(=O)C1=C(c2ccccc2)OC(N)=C(C#N)C1c1ccncc1 (configuration not stated) 39.8 µM [inhibitor, single point]
Cn1nc(-c2ccc(Cl)cc2)c2cc(C(=O)NCc3ccco3)sc21 29.9 µM [inhibitor, single point]
O=C1C(c2ccc(F)cc2)N(C2CCCCC2)C(=O)CN1C1CCCC1 (configuration not stated) 39.8 µM [inhibitor, single point]
Nc1ncnc2c1C1(CCCCC1)Cc1ccccc1-2 39.8 µM [inhibitor, single point]
Cc1cc(C)n(-c2nc3ccccc3c(=O)n2OC2CCCCC2)n1 25.1 µM [inhibitor, single point]
CCCOC(=O)c1ccc(NC(=O)C2C3CCC(C3)C2C(=O)O)cc1 (configuration not stated) 28.2 µM [inhibitor, single point]
Cc1ccccc1CS(=O)(=O)Cc1ccc(C(=O)NCc2ccccn2)o1 39.8 µM [inhibitor, single point]
FC(F)(F)c1nnc2ccc(NCn3nnc4ccccc43)nn12 35.5 µM [inhibitor, single point]
COc1c(C)cc(C(=O)C2CCCN(C(=O)c3ccc4cc[nH]c4c3)C2)cc1C (configuration not stated) 39.8 µM [inhibitor, single point]
CC1(C)CC23C(=O)CCC(O)C2(C)CCC13 (configuration not stated) 22.4 µM [inhibitor, single point]
CCOC(=O)c1cccc(S(=O)(=O)N(CCO)Cc2cc3cc(OC)c(OC)cc3[nH]c2=O)c1 39.8 µM [inhibitor, single point]
CS(=O)(=O)Nc1ccccc1C(=O)Nc1cc(Cl)cc(Cl)c1 31.6 µM [inhibitor, partial curve]
COc1cccc(N2C(=O)C3ON(c4ccccc4)C(c4cccs4)C3C2=O)c1 (configuration not stated) 39.8 µM [inhibitor, single point]

Potency, active:
COc1cc(N(C)C)c([N+](=O)[O-])cc1C(=O)N1CCN(Cc2ccccc2)CC1 10 µM
c1ccc(Cc2nn3c(COc4ccccc4)nnc3s2)cc1 5.01 µM
CN1CCN(C(=O)c2ccc3c(=O)n(Cc4ccc(Cl)cc4)c(=S)[nH]c3c2)CC1 22.4 µM
C=CCSC1=C(C#N)C(c2ccccc2Cl)C(C(=O)c2cccs2)C(O)(C(F)(F)F)N1 (configuration not stated) 14.1 µM
Cc1onc(-c2ccccc2Cl)c1C(=O)NC(=S)Nc1ccc(C(C)C)cc1 20 µM

activity, negative = inhibition, inactive:
O=C(OCc1cccc([N+](=O)[O-])c1)c1cc(=O)[nH]c2ccccc12 5.1%
CCCCCc1c(C)nc(SCC(=O)O)[nH]c1=O -0.0506%
Cc1ccc(C)c(/C=N/Nc2ccccn2)c1 9.78%
OC(COCc1ccc(Cl)cc1)CN1CCN(CC(O)COCc2ccc(Cl)cc2)CC1 (configuration not stated) -0.447%
O=C(COc1ccccc1)NCC(=O)Nc1cccc2ccccc12 9.4%
CCOC(=O)c1ccc(-n2c(C)ccc2C)cc1 -5.25%
COc1cc(SC)ccc1C(=O)OCC(=O)NC1CCCCC1 -9.37%
COCCN(C(=O)CN1CCN(S(=O)(=O)c2ccc(F)cc2)CC1)c1c(N)n(Cc2ccccc2)c(=O)[nH]c1=O 1.88%
COc1ccc(/C=C/C(=O)NCCN=C2NS(=O)(=O)c3ccccc32)cc1 17.8%
CC(Sc1nc(N2CCCCC2)c2c(c1C#N)CCCC2)C(=O)O (configuration not stated) -4.16%
O=C(O)CCCNc1ccc([N+](=O)[O-])c(NCCCC(=O)O)n1 4.33%
CC(=O)c1cccc(NS(=O)(=O)N(C)C)c1 -3.79%
CC1CN(C(=S)SCCN2C(=O)CCC2=O)CC(C)O1 (configuration not stated) -8.85%
CC(Sc1nnc2c(n1)C1CCC2(C)C1(C)C)C(=O)Nc1ccccc1 (configuration not stated) -8.04%
COc1ccccc1C(=O)NC1CCN(C(=S)NCCc2ccccc2)CC1 5.6%
O=C(NC1CCCCC1)C1CCN(C(=O)c2ccc(-c3ccccc3)cc2)CC1 2.87%
